# Test results taken from article PMC9911399, “Two distinct binding modes provide the RNA-binding protein RbFox with extraordinary sequence specificity”.
# Residue numbers refer to the chain shown, from its start. The list shows a part of the results.
# B1: CAUAGUA (DNA:RNA)
# RNA: GGGAGACCGGAAUUCAGAUUGUCCCAUAGUAUUAAAUCCCGUCGUAGCCACCA
# DNA 1: CAATCTGAATTCCGGTCTCCC
# DNA 2: TGGTGGCTACGACGGGATT
# B2: CCAACGC (DNA:RNA)
# RNA: B1 RNA with A26C, U27A, G29C, U30G, A31C
# DNA 1: CAATCTGAATTCCGGTCTCCC
# DNA 2: TGGTGGCTACGACGGGATT
# B3: UGACACU (DNA:RNA)
# RNA: GGGAGACCGGAAUUCAGAUUGUCCUGACACUUUAAAUCCCGUCGUAGCCACCA
# DNA 1: CAATCTGAATTCCGGTCTCCC
# DNA 2: TGGTGGCTACGACGGGATT
# B4: GCUCACC (DNA:RNA)
# RNA: B3 RNA with U25G, G26C, A27U, U31C
# DNA 1: CAATCTGAATTCCGGTCTCCC
# DNA 2: TGGTGGCTACGACGGGATT
# B5: UUUACGA (DNA:RNA)
# RNA: B1 RNA with C25U, A26U, G29C, U30G
# DNA 1: CAATCTGAATTCCGGTCTCCC
# DNA 2: TGGTGGCTACGACGGGATT
# B6: AUGCCCG (DNA:RNA)
# RNA: B3 RNA with U25A, G26U, A27G, A29C, U31G
# DNA 1: CAATCTGAATTCCGGTCTCCC
# DNA 2: TGGTGGCTACGACGGGATT
# B7: AUUUCCG (DNA:RNA)
# RNA: B1 RNA with C25A, A26U, A28U, G29C, U30C, A31G
# DNA 1: CAATCTGAATTCCGGTCTCCC
# DNA 2: TGGTGGCTACGACGGGATT
# B8: CCACAAA (DNA:RNA)
# RNA: B3 RNA with U25C, G26C, C30A, U31A
# DNA 1: CAATCTGAATTCCGGTCTCCC
# DNA 2: TGGTGGCTACGACGGGATT
# B9: CUCCUAC (DNA:RNA)
# RNA: B1 RNA with A26U, U27C, A28C, G29U, U30A, A31C
# DNA 1: CAATCTGAATTCCGGTCTCCC
# DNA 2: TGGTGGCTACGACGGGATT
# Target: T1, RBFOX1 RRM (Homo sapiens, UniProt Q9NWB1 109-208)
# T1 sequence: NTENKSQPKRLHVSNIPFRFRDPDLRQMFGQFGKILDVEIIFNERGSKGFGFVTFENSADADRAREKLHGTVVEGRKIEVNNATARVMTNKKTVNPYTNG
# Test: EMSA; HiTS-Eq, 1 nM pool, 10 min; buffer printed only for the single-RNA assays: 10 mM Tris pH 7.5, 150 mM NaCl, 3.4 mM EDTA, 0.001% NP-40, 30 C
# Conditions: tags: His6 N-terminal (pET28a); label: 5' 32P
# Method in brief: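 Relative association constants, normalised to the cognate motif, were derived by comparing read counts of each RNA species with those of the control reaction. The RNA sequenced was the free fraction, separated by 8% native PAGE after a 10 min equilibration in 50 µL of 1 nM 5′-radiolabelled RNA (7 randomized nucleotides) with increasing concentrations of purified wild-type or mutant RbFox RRM.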
row,Binder,binding signal
1,B1,0.00289 KA relative to UGCAUGU
2,B2,0.00224 KA relative to UGCAUGU
3,B3,0.0103 KA relative to UGCAUGU
4,B4,0.00471 KA relative to UGCAUGU
5,B5,0.011 KA relative to UGCAUGU
6,B6,0.0102 KA relative to UGCAUGU
7,B7,0.00787 KA relative to UGCAUGU
8,B8,0.00309 KA relative to UGCAUGU
9,B9,0.00447 KA relative to UGCAUGU
